# Assay results published in PubChem BioAssay AID686978 (National Center for Advancing Translational Sciences (NCATS), 2013).
# The whole screen tested about 420,000 compounds, of which about 64,000 (15%) were called active. Inconclusive results, whose numbers are uncertain, are shown with a selection of clear calls. Calls follow the shape of the dose curve; as a rule, active = well fitted inhibition curve with a large enough effect; inconclusive = small, poorly fitted or top-dose-only effect; inactive = flat fitted curve, though single readings scatter. No potency is given beside an inconclusive call; the fits are too rough.
# Assay: qHTS for Inhibitors of human tyrosyl-DNA phosphodiesterase 1 (TDP1): qHTS in cells in absence of CPT; also: nearly all actives have a fitted effect of over 55% in size
# Conditions: DT40 Tdp1-/- hTDP1 cells, no CPT, ATP luminescence, 48 h; activity change, negative = growth inhibition: at 46.2 µM (top of the series) unless noted
# How it was run: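 DT40 Tdp1-/-;hTDP1 cells, no CPT (DMSO vehicle only), 400 cells/well; compounds pin-transferred; ≥48 hr, 37 °C; CellTiter-Glo 30 min RT dark, luminescence read.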
# % is scaled to controls: 0 for no effect and ±100 for the full control effect; potency is read from the fitted curve at half-maximal effect; tags tell the direction and shape of the fitted curve.
Structure (SMILES),"activity change, negative = growth inhibition",Potency
COc1cccc(C(C(=O)NCc2ccccc2)N(C(=O)Cn2nnc3ccccc32)c2cccc(C(C)=O)c2)c1 (configuration not stated),inactive: -26.7%,
Cc1ccc(C)c(CSc2cn(CCNC(=O)c3ccccc3F)c3ccccc23)c1,,"inconclusive [inhibitor, single point]"
CCNC(=O)CN(c1ccc(Oc2ccccc2)cc1)S(=O)(=O)c1ccccc1,inconclusive: -31.2% [inhibitor],
Cc1cc(NC(=O)c2ccc(C)s2)n(-c2nc3ccccc3[nH]2)n1,,active: 20.6 µM
Cc1cc(Cl)ccc1Oc1ccc(C(N)=O)cc1[N+](=O)[O-],,"inconclusive [inhibitor, single point]"
O=C(C1CCN(S(=O)(=O)c2ccc(Br)s2)CC1)N1CCN(C2CCCCC2)CC1,,"inconclusive [inhibitor, single point]"
O=C(CSc1ncnc2sccc12)Nc1ccc(S(=O)(=O)N2CCOCC2)cc1,,"inconclusive [inhibitor, single point]"
COc1ccc(OC)c(/C=C/c2sc3ccccc3[n+]2C)c1,,"inconclusive [inhibitor, partial curve, poor fit]"
CCSc1ccc(/C(N)=N/OC(=O)c2cccs2)cn1,inactive: 7.41%,
COc1ccc(C(=O)N/C(=C\c2cn(C)c3ccccc23)C(=O)N2CCN(C)CC2)cc1OC,,"inconclusive [inhibitor, single point]"
Nc1ccc(Br)c[n+]1Cc1cccc2cccnc12,,"inconclusive [inhibitor, partial curve]"
CC1(C(=O)NCc2ccccc2Br)CCN1C(=O)C1(c2ccc(Cl)cc2)CC1 (configuration not stated),,"inconclusive [inhibitor, single point]"
Cc1cccc(S(=O)(=O)Nc2ccc(-c3nc4ccc(C)cc4s3)cc2)c1,,active: 29.1 µM
CC(=O)N(CCCN(C)C)CCC(C)CCC=C(C)C (configuration not stated),,"inconclusive [inhibitor, partial curve]"
CCCCNC(=O)[C@@](CC)(ONc1ccccc1C(F)(F)F)c1cccc2ccccc12,,"inconclusive [inhibitor, single point]"
Cc1cc(OCc2cc(C(=O)N3CCCCCC3)no2)cc(C)c1Cl,,"inconclusive [inhibitor, single point]"
CCOc1ccc(NC(=O)CN(C)C(=O)CCCOc2ccc(Br)cc2)cc1OCC,,"inconclusive [inhibitor, single point]"
O=C(/C=C/c1cccc(F)c1)OCC(=O)c1ccc[nH]1,inactive: 1.89%,
CCOc1ccccc1C(C(=O)NC1CCCC1)N(C(=O)c1csnn1)C1CC1 (configuration not stated),,"inconclusive [inhibitor, single point]"
O=C(NCc1cccnc1)c1ccc(NS(=O)(=O)c2ccccc2)cc1,inactive: -24%,
COc1ccc(N(C)C(=O)Cc2c(C(=O)O)[nH]c3ccccc23)c(OC)c1,inactive: -26.8%,
COc1ccc(/C=C2\C(=O)N(c3c(Cl)cc(Cl)cc3Cl)N=C2NC(=O)c2cccc([N+](=O)[O-])c2)cc1,,"inconclusive [inhibitor, single point]"
CCOn1c(-n2nc(C)cc2C)nc2ccccc2c1=O,inactive: -5.19%,
COc1ccccc1CNc1ncnc2cc(Cl)ccc12,,"inconclusive [inhibitor, partial curve]"

Structure (SMILES),"activity change, negative = growth inhibition",Potency
Cn1c(C(C#N)C(=O)c2ccco2)nc2ccccc21 (configuration not stated),,"inconclusive [inhibitor, partial curve]"
Cc1ccc(C(=O)C2=C(O)C(=O)N(CC3CCCO3)C2c2ccccc2F)o1 (configuration not stated),inconclusive: -30.6% [inhibitor],
COc1ccc(CCNC(=O)c2ccc(NS(=O)(=O)c3ccc4[nH]c(=O)[nH]c4c3)cc2)cc1OC,inactive: 8.27%,
COc1cc(C2c3c(-c4ccccc4O)n[nH]c3C(=O)N2CCO)ccc1OCC(C)C (configuration not stated),,"inconclusive [inhibitor, single point]"
CCN(CC)C(=O)c1nc[nH]c1C(=O)N1CCN(c2ccccc2)CC1,,"inconclusive [inhibitor, single point]"
O=C(Cc1ccccc1F)Nc1ccc(S(=O)(=O)Nc2ncccn2)cc1,inactive: -22.8%,
Cc1ccc(NC(=O)CSc2nnc(-c3cccs3)n2Cc2ccco2)cc1,inconclusive: -32.6% [inhibitor],
CN(Cc1cn(C)c2ccccc12)C(=S)Nc1cc(F)cc(F)c1,,"inconclusive [inhibitor, full curve]"
CCN(CC)CCNC(=O)c1cc2c(=O)oc3ccc(C)cc3c2s1,,"inconclusive [inhibitor, single point]"
CCOc1ccccc1NC(=O)COC(=O)C(CC)c1ccccc1 (configuration not stated),,"inconclusive [inhibitor, partial curve, poor fit]"
O=C1c2oc3ccccc3c(=O)c2C(c2cccs2)N1CCCN1CCOCC1 (configuration not stated),inactive: -26.7%,
CC1CCCC(C)N1CC(O)Cn1c2ccccc2c2ccccc21 (configuration not stated),,active: 2.59 µM
C=CCOc1ccc(C2N3CC4(C)CN2CC(CCC)(C3)C4=O)cc1 (configuration not stated),,"inconclusive [inhibitor, single point]"
CCN(CC)c1ccc(S(=O)(=O)N2CCOCC2)cc1NC(=O)c1cc(=O)c2ccccc2o1,,active: 7.31 µM
CCOc1ccc(N2CC(C(=O)Nc3ccccc3N3CCOCC3)CC2=O)cc1 (configuration not stated),inactive: 1.88%,
COc1cc(CN2CCN(Cc3cn(C)c4ccccc34)CC2CCO)cc(OC)c1 (configuration not stated),,"inconclusive [inhibitor, single point]"
COC(=O)c1ccc(C(=O)N2CCCC(Nc3ccc(F)c(F)c3)C2)cc1 (configuration not stated),inactive: -0.86%,
O=C(/C=C/c1cccc([N+](=O)[O-])c1)OCC(=O)N1CCOCC1,,"inconclusive [inhibitor, single point]"
CCCCOC(=O)Sc1nc2ccccc2o1,,"inconclusive [inhibitor, single point]"
CCCn1c(NC(=O)C2CCN(C(=O)c3ccc(F)cc3)CC2)nc2ccccc21,,"inconclusive [inhibitor, single point]"
Cn1cnc2c(SCc3ccccc3)ncnc21,inactive: -6.57%,
O=C(/C=C/c1ccc(Cl)cc1)Nc1nc(-c2cccs2)ns1,,"inconclusive [inhibitor, partial curve]"
O=C(COc1ccccc1)Nc1ccc(S(=O)(=O)N2CCCC2)cc1,,"inconclusive [inhibitor, single point]"
COc1ccccc1Nc1nc2c(s1)CCC2,,"inconclusive [inhibitor, single point]"

Structure (SMILES),"activity change, negative = growth inhibition",Potency
Cc1ccc(NC(=O)Cn2nnc3sc4c(c3c2=O)CCCC4)c(C)c1,,"inconclusive [inhibitor, single point]"
Cc1ccc(SCCSc2ncccn2)cc1,,"inconclusive [inhibitor, full curve, poor fit]"
N#CCN(N=Nc1ccccc1)c1ccccc1,inactive: -14.7%,
O=S(=O)(c1ccccc1)N1CCC2(CCN(c3ncccn3)CC2)CC1,,"inconclusive [inhibitor, single point]"
C/C=C(/C)C(=O)O[C@@H]1c2c(ccc3ccc(=O)oc23)O[C@@H]1C(C)(C)OC(C)=O,,"inconclusive [inhibitor, single point]"
COc1ccc(Cc2nnc(SCC(=O)N3CCCC3)o2)cc1,inactive: 9.52%,
Cc1ccc(S(=O)(=O)NCC2CCC(C(=O)NC3CCCCC3)CC2)cc1 (configuration not stated),inactive: -7.89%,
O=C(c1ccccc1)N1CCn2c(nc3ccccc32)C1,inactive: 1.85%,
Cc1cccc(C(O)c2ncc(-c3ccc(Cl)cc3)[nH]2)c1C (configuration not stated),,"inconclusive [inhibitor, single point]"
CCn1cc(C(=O)NCc2ccc(F)cc2)c(=O)c2cc(S(=O)(=O)N(C)C)ccc21,,"inconclusive [inhibitor, partial curve]"
O=C(Nc1ccccc1)Nc1ccc2ncoc2c1,inactive: -15.1%,
COc1ccc(/C(=C\Nc2ccc(C)c(C)c2)C(C)=O)cc1OC,,"inconclusive [inhibitor, single point]"
Cc1ccc(NC(=O)C(C)OC(=O)c2nc(Cl)ccc2Cl)cc1S(=O)(=O)N1CCOCC1 (configuration not stated),inactive: 3.91%,
Cc1ccc(C(=O)NCC(=O)OC(C)C(=O)Nc2ccc(N(C)C)cc2)s1 (configuration not stated),,"inconclusive [inhibitor, full curve, poor fit]"
COc1ccc(-c2csc(C(NC(C)=O)c3ccc(F)c(F)c3)n2)cn1 (configuration not stated),,"inconclusive [inhibitor, partial curve]"
CCOC(=O)C1(C)CCN1C(=O)c1ccoc1 (configuration not stated),inactive: 11.9%,
Cc1ccccc1NC(=O)CSc1nnc(-c2ccco2)c(-c2ccco2)n1,,"inconclusive [inhibitor, single point]"
CC1(C(=O)NS(=O)(=O)c2ccc(C#N)cc2)CCN1C(=O)C1(c2ccccc2)CC1 (configuration not stated),inactive: -26.5%,
COc1ccc(CCNCC(O)COc2cccc(Br)c2)cc1 (configuration not stated),,"inconclusive [inhibitor, single point]"
O=C(COc1ccccc1C(=O)NCc1ccccc1)Nc1ccc(Br)cc1,,"inconclusive [inhibitor, single point]"
COc1ccc(-n2c(CCC(=O)O)ccc2-c2ccccc2)c(OC)c1,inactive: -29.1%,
CC(=O)N1CCCc2cc(S(=O)(=O)N(Cc3ccccc3)C(C)C)ccc21,,active: 16.4 µM
CCOC(=O)C1=CN(Cc2cccc(-c3ccc(Cl)nc3)c2)S(=O)(=O)N(C)C1C (configuration not stated),,active: 20.6 µM
COc1ccccc1C(=O)NCCNc1ccc([N+](=O)[O-])cc1Cl,inactive: -19.5%,
